Drawing on PMC6212790, this text covers binding signal for 94 sequences.

The list shows a part of the results. At the low end of the ranking the order means little.

This test deals with T1, GST-Rok (full length) (UniProt O34857).
T1 sequence: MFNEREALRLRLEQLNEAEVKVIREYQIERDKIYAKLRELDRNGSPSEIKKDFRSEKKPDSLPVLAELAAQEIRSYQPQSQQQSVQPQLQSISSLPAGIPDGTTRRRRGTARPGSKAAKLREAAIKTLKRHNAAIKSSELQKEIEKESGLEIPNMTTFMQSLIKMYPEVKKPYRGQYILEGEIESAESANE
In words: protein binding microarray.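 Also: rank score from −0.5 (least bound) to 0.5 (best bound).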 The conditions noted are these: Rok is a gene silencer of Bacillus subtilis; high values mean tight binding; most listed sequences are background and not binding sites; double strand, one strand shown.
On to GCCGCAAC, for which the binding signal is -0.231 E-score.
The same measure for ACGTTTCA: -0.143 E-score; for GCAACGCA: -0.126 E-score.
The same measure for ACAGTTCT: 0.204 E-score; for CTGGGGAC: -0.289 E-score; for CCCAGTAA: -0.137 E-score.
Regarding GCAATGGC, the binding signal is -0.288 E-score.
The sequence CAGAACGG displayed a binding signal of -0.0464 E-score.
TCAAAGCA came in with a binding signal of 0.154 E-score.
Under CTCCCACA stands -0.0653 E-score; under CAAAAATG, -0.0399 E-score.
On to AATCAGGA, for which the binding signal was -0.0153 E-score.
For the sequence TCGGCGCA, the binding signal is -0.264 E-score.
The same measure for CGGGAGAA: -0.0902 E-score.
The same measure for ACGAAGCC: -0.16 E-score; for ACATTGCC: -0.0325 E-score; for AGCAACGA: -0.0987 E-score.
As for CTCCGGTC, the binding signal was -0.181 E-score.
As to AACGTGCC, the binding signal is -0.144 E-score.
As for GTGTCTTA, the binding signal was -0.0198 E-score.
On to ACCCATCC, for which the binding signal is -0.0647 E-score.
Regarding TGTCGGAA, the binding signal is -0.177 E-score.
As to ACATTCCT, the binding signal is -0.00444 E-score.
As for CGTTTGCC, the binding signal was -0.104 E-score.
CAGAACAA had a binding signal of -0.0915 E-score.
Take AGCTACCG: the binding signal was 0.309 E-score.
The same measure for TACGGCAA: 0.138 E-score.
ATCTGATA yielded a binding signal of 0.237 E-score.
In the case of AGCACTAT, the binding signal came out at 0.0981 E-score.
In turn, GCTATCCA returned a binding signal of 0.0426 E-score.
The sequence AAACTGTG displayed a binding signal of -0.00412 E-score.
On to ACTATTAC, for which the binding signal was 0.407 E-score.
For ATCTTAAC, the binding signal turned out to be 0.199 E-score.
Take ATCCCTCA: the binding signal was -0.24 E-score.
Take AGCACTGG: the binding signal is -0.246 E-score.
CCCTGCAC showed a binding signal of -0.37 E-score.
In the case of AGCGCGGG, the binding signal is -0.274 E-score.
Under CACCGTCA stands -0.143 E-score; under GCCGTCCA, -0.24 E-score; under TGCTCCAA, -0.193 E-score.
The same measure for GCATCTCA: -0.0845 E-score; for AGTCGATC: -0.0567 E-score.
For CCTCGACG, the binding signal was -0.138 E-score.
The same measure for GTCAGCAC: -0.165 E-score; for AGCGATGG: -0.0613 E-score; for ACTAGCTG: 0.179 E-score.
AATTCTAG had a binding signal of 0.321 E-score.
On to CAAAGCAC, for which the binding signal is -0.0461 E-score.
In turn, ACAGTTAA registered a binding signal of 0.109 E-score.
Under AGAATAAT stands 0.227 E-score.
Consider AGCCTACC, for which the binding signal is -0.0411 E-score.
The same measure for GTGCATCA: 0.0778 E-score; for CCGCACAC: -0.19 E-score; for AAGATGAG: 0.0577 E-score.
CAACTCCA: the binding signal is -0.0874 E-score.
In turn, ACCAATGG registered a binding signal of 0.0184 E-score.
ACTTCAAC: the binding signal is 0.077 E-score.
The sequence GATCTGGA came in with a binding signal of -0.114 E-score.
Sequence GGGAAACC came in with a binding signal of -0.209 E-score.
Sequence AGGTAACG showed a binding signal of -0.0854 E-score.
Under CCACGACG stands -0.0637 E-score.
The same measure for AGTAAGCA: 0.0894 E-score; for CTAAATGA: 0.193 E-score; for GTAAACGA: -0.0497 E-score.
The same measure for GACCAAGC: -0.0833 E-score.
CGTGATCA: the binding signal is 0.00654 E-score.
The sequence ATGCTTTA registered a binding signal of -0.0817 E-score.
Under ATGGTCAC stands -0.0409 E-score.
Consider AGACATTG, for which the binding signal amounted to 0.0664 E-score.
The same measure for AAGATCCA: -0.126 E-score; for ATTATTCC: 0.222 E-score; for AATCCACC: -0.178 E-score.
Under AGGCGACA stands -0.0777 E-score; under GGAACATA, 0.00433 E-score; under GCCGGTGA, -0.0673 E-score.
CCGCCCCG gave a binding signal of -0.491 E-score.
Turning to CGGCCATC, the binding signal is -0.304 E-score.
Under AAATTCAC stands 0.202 E-score; under GTAATATA, 0.391 E-score.
GCTAGAAC gave a binding signal of 0.209 E-score.
The sequence CCGGATCG registered a binding signal of -0.156 E-score.
As to GGATGAAC, the binding signal was found to be 0.0639 E-score.
The same measure for CGGTTAGA: -0.0152 E-score; for CATGGAAA: -0.033 E-score; for ATGGTTGA: 0.0308 E-score.
CACGCCGC yielded a binding signal of -0.284 E-score.
The sequence AGTATGGA came in with a binding signal of 0.097 E-score.
For ACTAGATA, the binding signal is 0.402 E-score.
For CCCGAGCC, the binding signal is -0.374 E-score.
In the case of CCCAACGA, the binding signal was -0.282 E-score.
The same measure for CCCATGGG: -0.229 E-score; for CTACGTCC: 0.149 E-score; for GCAGGCTA: -0.279 E-score.
CACAGGAG showed a binding signal of -0.196 E-score.
